The campaign covered roughly 310,000 compounds. About 2,200 (0.71%) showed an effect of 50% or more. Effects have a minus sign here. This is one part of the list.
Molecular target: human ether-à-go-go-related gene (hERG) potassium channel (human, UniProt Q12809)
Test: primary screen, population patch clamp on CHO cells stably expressing hERG

Chain of human ether-à-go-go-related gene (hERG) potassium channel (Q12809 whole entry, looked up): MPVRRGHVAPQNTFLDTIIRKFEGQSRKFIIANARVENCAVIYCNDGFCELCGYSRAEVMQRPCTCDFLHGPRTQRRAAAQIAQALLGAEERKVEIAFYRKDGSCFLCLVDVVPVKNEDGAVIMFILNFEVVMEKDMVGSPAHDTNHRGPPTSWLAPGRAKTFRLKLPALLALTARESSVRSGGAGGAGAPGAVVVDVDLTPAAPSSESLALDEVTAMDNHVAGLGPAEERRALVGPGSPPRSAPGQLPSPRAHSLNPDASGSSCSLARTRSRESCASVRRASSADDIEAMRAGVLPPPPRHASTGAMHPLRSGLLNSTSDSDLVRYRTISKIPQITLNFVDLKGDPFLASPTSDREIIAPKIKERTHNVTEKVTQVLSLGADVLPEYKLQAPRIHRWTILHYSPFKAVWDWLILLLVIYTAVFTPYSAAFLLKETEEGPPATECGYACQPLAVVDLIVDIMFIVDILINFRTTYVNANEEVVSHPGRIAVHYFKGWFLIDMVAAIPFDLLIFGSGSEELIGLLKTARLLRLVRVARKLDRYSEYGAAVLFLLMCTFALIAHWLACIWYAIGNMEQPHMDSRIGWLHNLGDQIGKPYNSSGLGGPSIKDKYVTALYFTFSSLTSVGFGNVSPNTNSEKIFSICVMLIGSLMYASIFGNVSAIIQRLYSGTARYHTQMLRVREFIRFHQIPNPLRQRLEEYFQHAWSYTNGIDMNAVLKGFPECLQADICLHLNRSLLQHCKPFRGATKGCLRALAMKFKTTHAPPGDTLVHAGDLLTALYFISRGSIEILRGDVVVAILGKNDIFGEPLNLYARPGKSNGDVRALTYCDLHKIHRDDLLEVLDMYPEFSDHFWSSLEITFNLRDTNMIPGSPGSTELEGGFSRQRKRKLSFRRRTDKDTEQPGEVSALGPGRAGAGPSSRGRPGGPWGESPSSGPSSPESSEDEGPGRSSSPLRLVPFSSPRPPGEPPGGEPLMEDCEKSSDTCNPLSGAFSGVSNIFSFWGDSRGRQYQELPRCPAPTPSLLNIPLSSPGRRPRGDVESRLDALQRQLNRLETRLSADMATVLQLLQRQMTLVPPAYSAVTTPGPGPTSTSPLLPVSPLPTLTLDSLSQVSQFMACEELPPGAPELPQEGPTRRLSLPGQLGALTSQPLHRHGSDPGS

Compound | hERG current change (%, negative = inhibition) at 1uM
O=C(O)c1ccc2c(c1)ncn2C1CCCC1 | 8.61%
CCc1noc(C)c1C(=O)N1CCCSC1=Nc1ccccc1 | 10.3%
Cc1cccc(NC(=O)CSc2nc(N)cc(N)n2)c1 | 8.66%
Cc1cc(C)cc(Nc2c3c(nc4ncnn24)CCC3)c1.Cl | 3.81%
CCOc1ccccc1NC(=O)NC(=O)N(C)S(=O)(=O)c1ccc(C)cc1 | 9.85%
CCOc1ccc(NC(=O)CCC(=O)O)cc1 | 15.4%
O=C(CCc1ccc(S(=O)(=O)NCCc2ccccc2)cc1)Nc1ccc2c(c1)OCO2 | 17.8%
CCN(CC)C(=O)CSc1nc(O)c(Cc2ccccc2)c(=O)n1-c1ccccc1C | 4.72%
CC(C)(C)C1CCc2onc(C(=O)O)c2C1 (stereo not shown) | 21%
COc1cc(/C=N/NC(=O)c2ccc(NS(=O)(=O)c3cccs3)cc2)cc(OC)c1O | 12.1%
COCCCNC(=O)CC(NS(=O)(=O)c1ccc(C)cc1)c1ccco1 (stereo not shown) | 23.8%
CCc1ccc(Nc2oc(C)cc(=O)c2C(C)=O)cc1 | 8.18%
CCc1nnc(NC(=O)c2cccnc2)s1 | 8.17%
COCCNc1cc(-c2ccccc2)nc2cc(-c3cccc(F)c3)nn12 | -0.755%
O=C1CN(C(=O)/C=C/c2ccccc2)CCN1 | 17%
Cc1ccccc1NS(=O)(=O)c1ccc(C(=O)N2CCCC(C(F)(F)F)C2)cc1 (stereo not shown) | 8.41%
CCOc1ccc(N2C(=O)CC(N3CCN(c4ccc(F)cc4)CC3)C2=O)cc1 (stereo not shown) | 6.41%
CCOCCCN1CN(S(=O)(=O)c2ccc(Cl)cc2)c2nc3ccccc3nc21 | 4.92%
C#CCn1c(S(=O)(=O)Cc2ccc(F)cc2)nc(-c2ccccc2)c1-c1ccccc1 | -4.44%
COC(=O)CSc1nnc(CNC(=O)c2ccc(S(=O)(=O)N(C)C)cc2)n1C | 12.9%

Compound | hERG current change (%, negative = inhibition) at 1uM
Cc1cc(C(F)F)nn1CC(=O)NC1CCCCCC1 | 14.4%
O=C(Nc1ccc(Cl)cc1)C1CCN(C(=O)c2cccs2)CC1 | 3.69%
COc1ccc(Nc2nc(-c3cccc([N+](=O)[O-])c3)nc3ccccc23)cc1 | 4.14%
CCCCn1c(CNC(=O)c2cccs2)nc2ccccc21 | -5.98%
Cc1ccc(S(=O)(=O)c2c(C)cc(C)nc2Oc2cccc(C)c2C)cc1 | 7.3%
Cc1ccccc1CN1CCC(n2nccc2NC(=O)c2ccc3c(c2)OCO3)CC1 | 9.88%
Cc1nc2ncnn2c(N2CCC(C(=O)NCC3CCCO3)CC2)c1Cc1ccccc1 (stereo not shown) | -4.94%
Cc1ccc(C(=O)NC(=S)Nc2ccccc2C(F)(F)F)c(C)c1 | 2.66%
Cc1ccc(NC(=O)CCN2C(=O)c3ccncc3C2=O)cc1 | 14.7%
CCn1c(N2CCN(C(=O)c3ccco3)CC2)nc2ccccc21 | -25.2%
CN1CCN(c2ccc3c(c2)S(=O)(=O)c2ccccc2C3=O)CC1 | 9.19%
COC(=O)C1=C(c2ccc(OC(F)(F)F)cc2)C[C@@H]2CC[C@H]1N2C(=O)NCc1ccc(F)cc1 | -8.39%
CC(=O)Nc1cc(C(=O)OC(C(=O)c2ccccc2)c2ccccc2)ccc1C (stereo not shown) | 9.32%
O=C(Nc1ccc(Br)cc1)c1cccc(N2C(=O)CCC2=O)c1 | 14.8%
COc1cc2c(C(=O)N3CCN(c4ccccc4F)CC3)cn(C)c(=O)c2cc1OC | 0.753%
O=C(O)c1ccc(S(=O)(=O)Cc2ccccc2)cc1 | 6.4%
CCOC(=O)c1c(/N=C/c2cc(C)ccc2O)sc2c1CCN(C)C2 | 11.6%
Cc1ccccc1OCCOc1ccccc1C=C(C#N)C#N | 7.81%
Cc1ccc(NC(=O)CC2COc3ccccc3O2)cc1 (stereo not shown) | 8.61%
O=C(CCC(=O)NC1CCCCC1)NCc1ccc(F)cc1 | 9.13%

Compound | hERG current change (%, negative = inhibition) at 1uM
COC(=O)Cc1c(C)nc2nc(Cc3ccccc3)[nH]n2c1=O | 13.7%
Cc1ccc(Sc2c(C#N)c(-c3ccccc3)nn2C)cc1 | -1.15%
Cc1cc(C)nc(-n2nc(C)cc2NC(=O)CN2CCC(C)CC2)n1 | -6.44%
CCOC(=O)c1c(NC(=O)COc2ncnc3ccccc23)sc(C)c1CC | 0.213%
COc1cc(C(=O)NNC(=S)NC(=O)c2ccc(Cl)cc2)cc(OC)c1OC | 5.6%
N#Cc1c(NC(=O)CN2CCCCC2)sc2c1CCC2 | 6.1%
O=C1/C(=C\c2cccs2)SC(=S)N1C1CCS(=O)(=O)C1 (stereo not shown) | 2.81%
N#CC1(NC(=O)CN2C(=O)c3ccccc3C2=O)CCCCC1 | 0.0056%
CC(C)CC1=NN(C(=O)c2cccnc2)C(O)(C(F)(F)F)C1 (stereo not shown) | 15.4%
Cc1ccccc1OCc1ccc(C(=O)N2CCOCC2)o1 | 12.3%
Cc1onc(-c2ccccc2)c1-c1ccc(S(N)(=O)=O)cc1 | 5.67%
COc1ccccc1OCC(=O)N1CCNC1=O | 5.75%
O=[N+]([O-])c1ccc(N2CCc3ccccc3C2)nc1 | 9.14%
O=C(COc1ccc(F)cc1)N(Cc1cccc(Br)c1)C1CCS(=O)(=O)C1 (stereo not shown) | 11.2%
COc1cc(OC)cc(-c2c(-c3ccc(F)cc3)c3cc(Br)ccc3n2C)c1 | -3.32%
O=C(CN1CCCCCC1)Nc1ccc(Cl)cc1F | 14.6%
COC(=O)c1cc(NC(=O)Cc2ccccc2[N+](=O)[O-])cc(C(=O)OC)c1 | 9.41%
CCCc1cc(Nc2cccc(OC)c2)n2ncnc2n1 | -14.7%

Source: paper PMC4336329 (PLoS ONE, 2015)
